The text below walks through data of the RNAGym collection of RNA variant scans (doi:10.7554/elife.90254).

Read counts are not given, so values of variants with three or more changes are uncertain.

B1: LINE1-mini (parent)
chain: GGCAGAGCUCAACACAGCGUGGCAAAGUGGCUGUGGCUAGACUGCC

In the series the parent is B1. The series is described as follows: self-cleavage, relative activity (ratio to wild type); higher = more cleavage; in vitro, sequencing; the parent is a self-cleaving ribozyme.
As to GGCAGAGCUCAACCAAGCGUUGCAAAGUGGCUGUGGCUAGACUGCC, the self-cleavage worked out at 0.01. With GGCAGAGCUCAACCCAGCGUGGCAAAGUGGCUGUGGACAGUCUGCC, the self-cleavage was 0. With GGCAGAGCUCAACCCAGGUUGGCAAAGUGGCUGUGGCUAGACUGCC the figure was 0.03. For the variant GGCAGAGCUCAACCCAGCGUGGCAAAGUGGGUGUGGCUAGACUGCU, the self-cleavage was 0.01. With GGCAGAGCUCAACCCAGCGUGGCAUAGUGGCUGUGGGUAGACUGCC the figure was 0.26; with GGCAGAGCUCAACCCAGCUUGGCAAAGUGGCUCUGGCUAGACUGCC, 0.04; with GGCAGAGCUCAACCCAGCGUGGCGAAGUGGCUGUGGCUAGACAGCC, 0.09. As for GGCAGAGCUCAACCCAGCGUGGCAAAGUGGCUGUGGCUUGACUGUC, the self-cleavage was determined as 0.05.

Regarding GGCAGAGCUCAACCCAACGUGGCAAAGUGGCUGUGGCUAGACUGAG, the self-cleavage worked out at 0.05.

On to GGCAGAGCUCAACCCGGGGUUGCAAAGUGGCUGUGGCUCGACUGCC, for which the self-cleavage is 0.03.

With GGCAGAGCUCAAUACAGCGUGGCAAAGCCGCUGUGGCUAGUCUGCC, the self-cleavage was found to be 0.05. With GGCAGAGCUCAACCCAGCGUGGCAAGCUGGAUGUGGCUAGACUGCC, the self-cleavage came to 0. For GGCAGAGCUCAACCCAGUGUGGCAAAGUGGCCGUGGCUAGACUGCC, the self-cleavage is 0.03. The value for GGCAGAGCUCAACCCAGCGUGGCAAUGUGGCUGUAUCUAGACUGCC was 0.09; that for GGCAGAGCUCAACCCAGCGUGGUAAAGUGGCUCUGGCUAGACUGCC was 0.05. Consider GGCAGAGCUCAAUACAGCGUGGCAAAGGGGAUGUGGCUAGACUGCC, for which the self-cleavage came to 0.02. As for GGCAGAGCUCAACCCAGCGUGGUAAAGUGGCUGUGGCUAGACUUCC, the self-cleavage turned out to be 0.1.

As for GGCAGAGCUCAACCUAGCGUGGCAAAGUGGUUGUGGCUAGACUUCC, the self-cleavage is 0.03. The value for GGCAGAGCUCAACCCAGAAUGGCAAAGUGGCUGUGGCUAGACUGCC was 0.04; that for GGCAGAGCUCAAUACAGCGUGGCAAAGUGGCUGUGGCAAGACUCCC was 0.07; that for GGCAGAGCUCAACCCCGCGUGGCAAAGUGGCUGAGGCUAGACUGUC was 0.09. With GGCAGAGCUCAACCCAGCGUGGUAAAGUGGCUGUUGUGAGACUGCC the figure was 0.02; with GGCAGAGCUCAACCCAGCGUGGCGAAGUGGCUGUGGCUAGACUGGC, 0.14.

Regarding GGCAGAGCUCAACCCAACGUGGCAAUGUGGCUGUGGCUAGACUGCC, the self-cleavage worked out at 0.04. For GGCAGAGCUCAACCCUGCGUGACAAGGUGGCUGUGGGUAGACUGCC, the self-cleavage was 0. GGCAGAGCUCAACCCAGCGUGGCAAAGUGGUUGUGGCUAUACUGCG: the self-cleavage worked out at 0.01. For GGCAGAGCUCAACCCAGCCUGGCAAAAUUGCUGUGGCUAGACUUCC, the self-cleavage came to 0.01. With GGCAGAGCUCAACCCAGCGUGGCAAGGUGGCUUUGGCUAGACUGCC the figure was 0.04; with GGCAGAGCUCAACCAAGCGUGGCAUCGUGGCUGUGGCUAGACAGCC, 0.11. The value for GGCAGAGCUCAACCCAGCGUGGCAAUGUGGCUGUGGCUAGACUACC was 0.17. On to GGCAGAGCUCAACCCAUCGUGGCAAUGUGGCUUUGGCUAGACAGCC, for which the self-cleavage was found to be 0.06. Turning to GGCAGAGCUCAACCCAGCGUGGCAAAGUGGGUGUGGAUAGACUGCG, the self-cleavage came to 0.01. As to GGCAGAGCUCAACCCAGCGUGGCGAAGUGGGUGUGGAUAGACAGCC, the self-cleavage is 0.02. With GGCAGAGCUCAACCCAGCGUGGCAAUGUGGCUGUGGCUAGACUGUC the figure was 0.11; with GGCAGAGCUCAACCCAGCUUGGCAACGUGGCUGUGGCUAGACUGCC, 0.12; with GGCAGAGCUCAACCCAGUGUGGCAAAUUGGCUGUGGCUAGCCUGCC, 0. The value for GGCAGAGCUCAACCCAGGGUGGCAAAGUGGCUGUAGCUAGACUGCC was 0.02. In the case of GGCAGAGCUCAACCCAGAGUGGCAAAGUGGCUCUGGCUAGACUGCC, the self-cleavage is 0.02. As for GGCAGAGCUCAACCCAGCGUGGCUAAGUGGGUGUGACUUGACUGCG, the self-cleavage turned out to be 0.02. As to GGCAGAGCUCAACCCUGCGUGGCAAAGUGGCUGUGGCUACACUCCC, the self-cleavage turned out to be 0.03. As for GGCAGAGCUCAACCCAACGGCGCAAAGUGGCUGUGGCUAGACUGCC, the self-cleavage worked out at 0.03. The value for GGCAGAGCUCAACCCAGGAGGACAAAAUGGCUGUGGCUAGACUGCC was 0.04; that for GGCAGAGCUCAACCAAGCGUGGCAAGGUGGCUGUGGCAAGACUGCC was 0.07; that for GGCAGAGCUCAACCCGGCGUGGCAAAGUGUCUGUGGCUAGACUGCC was 0.04. With GGCAGAGCUCAACCAAGCGUGGAAAAGUCGCUGUGGCUAGACUUCC the figure was 0.02; with GGCAGAGCUCAACCCAGCCUGGCAAACUGGAUGUGGCUAGACUGCC, 0.01. In the case of GGCAGAGCUCAAUACAGCGUGGCAAAGUGGCGGUGGAUAGACUGCC, the self-cleavage was 0. The value for GGCAGAGCUCAACCCGGCUUGGCAAAGUGGCUGUGGCUAGGCUGAC was 0. The value for GGCAGAGCUCAACCCGGCGUGGCAAAAUGGCUGGGGCUAGACUGCC was 1.92; that for GGCAGAGCUCAACCCCGCGUGGCAAAAUGGCUGUGGCCAGACUGCC was 0.04. Consider GGCAGAGCUCAAUACAGCGUGGCAAAGUGGCUGGGGUUAGCCUGCC, for which the self-cleavage worked out at 0.17. With GGCAGAGCUCAACCGAGCAUGGCAAAGUGGCUGUGGCUAGACUGCU the figure was 0.03.

GGCAGAGCUCAACCCAACGUGCCAAAGUGGCUUGGGCUAGACUGCC: the self-cleavage came to 0.01. The value for GGCAGAGCUCAACCCAGGGUGGCUAAGUGGCUGUGGCUAGACUUCC was 0.06; that for GGCAGAGCUCAACCCAGCGUGGCAUAGUGGCUGCGGCUAGCCUGCG was 0.05; that for GGCAGAGCUCAAUACAGCGUGGCAAAGUGGCCGUAGCUAGACUGCC was 0.02.
